Results: PubChem BioAssay (Tox21)
“And” between values parts separate entries of the source, which are not always exact repeats. Equal entries are not always repeated. The shares of active, inactive and inconclusive entries below differ from those in the screen. For some of these results: A potency beside an inconclusive call is a rough fit, not a confirmed value. The source made the active and inactive calls. Calls follow the shape of the dose curve; as a rule, active = well fitted curve in the direction sought with a large enough effect in the repeat runs; inconclusive = weak or mixed curves; inactive = no such curve, though single readings can be large; an effect the other way counts as inactive or inconclusive.

Assays:
[1] = qHTS RealTime-Glo MT Cell Viability Assay in HepG2 cells - 16 hour (AID 1224885); settings: RealTime-Glo luminescence; series mostly up to 76.8 µM; also: nearly all actives have a fitted effect of over 50% in size
Procedure, shortened: (§1)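 Compound treatment began 5 h after plating HepG2 cells (600/well) with NanoLuc luciferase and prosubstrate. Plates stayed at 37 C for 40 h; luminescence was captured at six time points, 0 h through 40 h.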

[2] = qHTS RealTime-Glo MT Cell Viability Assay in HEK293 cells - 8 hour (AID 1224887); settings: RealTime-Glo luminescence; series mostly up to 76.8 µM; also: nearly all actives have a fitted effect of over 50% in size
Procedure, shortened: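 HEK293 + NanoLuc + prosubstrate, 600 cells/well; 5 h, 37 C/5% CO2; compound 23 nL in DMSO by pintool; 37 C; luminescence read at 0, 8, 16, 24, 32 and 40 h time points.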

[3] = A CellTox Green Cytotoxicity Assay to monitor cytotoxicity in HepG2 cells - 8 hour (AID 1224890); settings: CellTox Green fluorescence; series mostly up to 76.8 µM; also: nearly all actives have a fitted effect of over 45% in size
Procedure, shortened: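 Measurements at 0, 8, 16, 24, 32 and 40 h of treatment captured CellTox Green fluorescence in HepG2 cells that had been co-plated with reagent and preincubated 5 h at 37 C/5% CO2.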

[4] = A CellTox Green Cytotoxicity Assay to monitor cytotoxicity in HEK293 cells - 16 hour (AID 1224888); settings: CellTox Green fluorescence; series mostly up to 76.8 µM; also: nearly all actives have a fitted effect of over 35% in size
Procedure, shortened: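 Tox21 screen in HEK293: membrane-impermeant cyanine dye fluoresces on binding dead-cell DNA; compound pinned 5 h post-seeding, plates held at 37 C, signal read repeatedly through 40 h.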

[5] = qHTS RealTime-Glo MT Cell Viability Assay in HepG2 cells - 0 hour (AID 1224889); settings: RealTime-Glo luminescence; series mostly up to 76.8 µM; also: nearly all actives have a fitted effect of over 50% in size
Procedure, shortened: as §1

[6] = qHTS RealTime-Glo MT Cell Viability Assay in HEK293 cells - 24 hour (AID 1224886); settings: RealTime-Glo luminescence; series mostly up to 76.8 µM; also: nearly all actives have a fitted effect of over 50% in size
Procedure, shortened: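 Quantitative high-throughput screen of the Tox21 10K library in HEK293: cells and RealTime-Glo reagents plated together, compound added at 5 h, luminescence monitored through 40 h at 37 C.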

[7] = qHTS assay to identify small molecule antagonists of the estrogen receptor alpha (ER-alpha) signaling pathway using the BG1 cell line in the presence of 0.1 nM 17-beta-estradiol - cell viability counter screen (AID 1259241); settings: VM7Luc4E2 (BG1) viability, CellTiter-Fluor protease, 22 h, 0.1 nM estradiol agonist added; series mostly up to 92.4 µM; also: nearly all actives have a fitted effect of over 40% in size
Procedure, shortened: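 Measures cytotoxicity alongside the ER-alpha antagonist readout: VM7Luc4E2 cells, charcoal-stripped serum, 0.1 nM 17beta-estradiol final, 22 hr compound incubation at 37C, CellTiter-Fluor fluorescence.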
Potency is read from the fitted curve at half-maximal effect; tags tell the direction and shape of the fitted curve.

SMILES | Potency [1] | Potency [2] | Potency [3] | Potency [4] | Potency [5] | Potency [6] | Potency [7]
CN1CCN(c2ccccc2/C=C2\SCCN(c3ccc(Cl)c(Cl)c3)C2=O)CC1 | active: 43.6 µM | active: 12.3 µM | inconclusive: 54.9 µM [activator, single point] |  |  |  | 
C#CC1(O)CC[C@H]2[C@@H]3CCC4=CCCC[C@@H]4[C@H]3CC[C@@]21C (some centres undefined) | inconclusive: 43.6 µM [cytotoxic, partial curve] | inconclusive: 17.4 µM [cytotoxic, full curve] and active: 21.3 µM |  | active: 24.5 µM and active: 21.3 µM | inconclusive: 61.6 µM [cytotoxic, single point] |  | 
CC(=O)O[C@]1(C(C)=O)CC[C@H]2[C@@H]3C=C(C)C4=CC(=O)CC[C@]4(C)[C@H]3CC[C@@]21C | inconclusive: 43.6 µM [cytotoxic, partial curve, poor fit] | inconclusive: 15.1 µM [cytotoxic, partial curve, poor fit] |  |  | active: 347 nM and active: 952 nM | active: 19.5 µM and inconclusive: 9.52 µM [cytotoxic, partial curve] | 
CC(=O)Nc1ccc(C(=O)CCl)cc1 | inconclusive: 34.7 µM [cytotoxic, partial curve] | inconclusive: 12.3 µM [cytotoxic, full curve] |  | inconclusive: 21.9 µM [activator, single point] |  |  | 
CCCCCCCCCCCCCCCCCC[N+](C)(C)Cc1ccccc1 | inconclusive: 55.5 µM [cytotoxic, partial curve, poor fit] | active: 24.8 µM |  | active: 22.1 µM | inconclusive: 1.97 µM [cytotoxic, single point] |  | inconclusive: 69.2 µM [cytotoxic, single point]
